# Source: a collection of fitness landscapes (doi:10.1016/j.celrep.2020.107928)
# Over roughly 81,000 sequences, “one-hybrid fitness for binding NBS DNA” has its median near -0.1; the highest 2% begin near 0.36. The list shows a part of the results.
# B1: Caulobacter ParB omega fusion; a variant is named by its letters at X, in order, B8GW30 (parent)
# chain: MESVVVGEPGMSEGRRGLGRGLSALLGEVDAAPAQAPGEQLGGSREAPIEILQRNPDQPRRTFREEDLEDLSNSIREKGVLQPILVRPSPDTAGEYQIVAGERAWRAAQRAGLKTVPIMVRELDDLAVLEIGIIENVQRADLNVLEEALSYKVLMEKFERTQENIAQTIGKSXSHVANXMRLLXLPDEVQSYLVSGELTAXHARAIAAAADPVALAKQIIEGGLSVRETEALARKAPNLSAGKSKGGRPPRVKDTDTQALESDLSSVLGLDVSIDHRGSTGTLTITYATLEQLDDLCNRLTRGI
# Variants of: B1
# Experiment: one-hybrid fitness for binding NBS DNA (the Noc-binding site; scaled: cognate 1, non-cognate 0); higher = stronger binding
# Conditions: with NBS DNA site
# In short: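 Values were rescaled so that cognate is 1 and non-cognate is 0. Each is a fitness, the log change in a variant's read ratio to wild type from Illumina reads of plasmids before and after selection, with three replicate libraries pooled and variants under 10 reads dropped. Selection of the Caulobacter ParB libraries, four specificity codons randomised, used E. coli USO with a HIS3 reporter, site 19 bp from the promoter, on M9-minus-histidine with 0.1 mM IPTG and 5 mM 3-AT for 48 hours at 37°C.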
row,Variant,one-hybrid fitness for binding NBS DNA
1,AISV,≤ 0.2
2,SCFS,≤ 0.2
3,KPYW,≤ 0.2
4,VYLL,≤ 0.2
5,ATPG,≤ 0.2
6,LKSG,≤ 0.2
7,QRPN,≤ 0.2
8,QWHI,≤ 0.2
9,TMSW,≤ 0.2
10,DFSS,≤ 0.2
11,TVQI,≤ 0.2
12,HHTC,≤ 0.2
13,AGWC,≤ 0.2
14,KYRS,0.232
15,NNYC,0.36
16,ISHD,≤ 0.2
17,QRMV,0.362
18,NSLR,≤ 0.2
19,RVIF,≤ 0.2
20,LCRH,≤ 0.2
21,VDAR,≤ 0.2
22,QRNP,0.308
23,TPCK,≤ 0.2
24,FSLM,≤ 0.2

row,Variant,one-hybrid fitness for binding NBS DNA
1,WHAR,≤ 0.2
2,THAA,≤ 0.2
3,DALS,≤ 0.2
4,QRTD,0.259
5,TFEL,≤ 0.2
6,MIPI,≤ 0.2
7,ADSP,≤ 0.2
8,DNQS,≤ 0.2
9,PMLL,≤ 0.2
10,RVYE,≤ 0.2
11,PHRG,≤ 0.2
12,MMVG,≤ 0.2
13,WASR,≤ 0.2
14,MHYC,≤ 0.2
15,ETEN,≤ 0.2
16,VKHM,≤ 0.2
17,QVKT,0.564
18,SREL,≤ 0.2
19,PFRN,≤ 0.2
20,TTLV,≤ 0.2
21,WWHG,≤ 0.2
22,GDRM,≤ 0.2
23,WVHG,≤ 0.2
24,HRPR,≤ 0.2

row,Variant,one-hybrid fitness for binding NBS DNA
1,KSQC,≤ 0.2
2,DTLV,≤ 0.2
3,GGNG,≤ 0.2
4,WKAV,≤ 0.2
5,PLID,≤ 0.2
6,AKSG,≤ 0.2
7,RVNI,≤ 0.2
8,LRSR,≤ 0.2
9,GVYC,≤ 0.2
10,VMFV,≤ 0.2
11,SGGS,≤ 0.2
12,VFRR,≤ 0.2
13,TIAE,≤ 0.2
14,NPAQ,≤ 0.2
15,CRNL,≤ 0.2
16,QSIC,≤ 0.2
17,CLMW,≤ 0.2
18,FRAT,≤ 0.2
19,PAKT,≤ 0.2
20,HVNR,≤ 0.2
21,RAKH,0.36
22,ASSD,≤ 0.2
23,LPQF,≤ 0.2
24,NDYR,≤ 0.2

row,Variant,one-hybrid fitness for binding NBS DNA
1,IRKV,≤ 0.2
2,CWQS,≤ 0.2
3,NCHD,≤ 0.2
4,WSVK,≤ 0.2
5,PIGR,≤ 0.2
6,FNRR,≤ 0.2
7,AMKG,≤ 0.2
8,LLVS,≤ 0.2
9,KKTK,≤ 0.2
10,QVSA,≤ 0.2
11,HCPY,≤ 0.2
12,WMEW,≤ 0.2
13,PGAK,≤ 0.2
14,EWEL,≤ 0.2
15,QSTQ,≤ 0.2
16,LLVT,≤ 0.2
17,SINT,≤ 0.2
18,MVDS,≤ 0.2
19,SYVW,≤ 0.2
20,SNHA,≤ 0.2
21,NAPT,≤ 0.2
22,RITF,≤ 0.2
23,QSGG,≤ 0.2
24,YMEW,≤ 0.2

row,Variant,one-hybrid fitness for binding NBS DNA
1,YGEG,≤ 0.2
2,AVRN,≤ 0.2
3,KHTD,≤ 0.2
4,RPAN,≤ 0.2
5,RLSY,≤ 0.2
6,RQRG,≤ 0.2
7,KGAC,≤ 0.2
8,PAMR,≤ 0.2
9,TSPS,≤ 0.2
10,IPVC,≤ 0.2
11,GGAN,≤ 0.2
12,IMAG,≤ 0.2
13,PNAY,≤ 0.2
14,NARV,≤ 0.2
15,CVKR,≤ 0.2
16,RYFT,≤ 0.2
17,PVAN,≤ 0.2
18,ADAT,≤ 0.2
19,QYKD,0.212
20,VTFM,≤ 0.2
21,MCTR,≤ 0.2
22,LRNP,≤ 0.2
23,RGWM,≤ 0.2
24,DVYT,≤ 0.2

row,Variant,one-hybrid fitness for binding NBS DNA
1,QMTH,≤ 0.2
2,LFCR,≤ 0.2
3,LLRT,≤ 0.2
4,DMDV,≤ 0.2
5,PSKV,≤ 0.2
6,KENP,≤ 0.2
7,WKTL,≤ 0.2
8,QGSI,≤ 0.2
9,SAWS,≤ 0.2
10,TTCI,≤ 0.2
11,DGVC,≤ 0.2
12,FVAV,≤ 0.2
13,RRKV,0.694
14,HFPW,≤ 0.2
15,RTYK,≤ 0.2
16,WQSR,≤ 0.2
17,QLYW,≤ 0.2
18,IAPF,≤ 0.2
19,HHIH,≤ 0.2
20,IRRS,0.349
21,ETLE,≤ 0.2
22,PSHP,≤ 0.2
23,LFCA,≤ 0.2
24,RVYH,≤ 0.2

row,Variant,one-hybrid fitness for binding NBS DNA
1,ISSI,≤ 0.2
2,RLSE,≤ 0.2
3,PPSG,≤ 0.2
4,QTQA,0.432
5,SLKE,≤ 0.2
6,ELAV,≤ 0.2
7,RCPC,≤ 0.2
8,YDLS,≤ 0.2
9,RNWY,≤ 0.2
10,IPAV,≤ 0.2
11,PNDT,≤ 0.2
12,QKQM,≤ 0.2
13,NTTT,≤ 0.2
14,NLYH,≤ 0.2
15,EPDS,≤ 0.2
16,EVTC,≤ 0.2
17,SCEW,≤ 0.2
18,PKCG,≤ 0.2
19,CASC,≤ 0.2
20,KKQL,≤ 0.2
21,CMSS,≤ 0.2
22,FTKV,≤ 0.2
23,CCPC,≤ 0.2
24,QTYR,0.691

row,Variant,one-hybrid fitness for binding NBS DNA
1,PSWP,≤ 0.2
2,FEMC,≤ 0.2
3,IPFD,≤ 0.2
4,GLTT,≤ 0.2
5,RPVG,≤ 0.2
6,QFQA,≤ 0.2
7,QRFN,0.353
8,QENC,≤ 0.2
9,RVYW,≤ 0.2
10,LWHP,≤ 0.2
11,CPLN,≤ 0.2
12,PGMI,≤ 0.2
13,QAGP,≤ 0.2
14,GNSV,≤ 0.2
15,TSVH,≤ 0.2
16,ESRD,≤ 0.2
17,PKYN,≤ 0.2
18,VEDC,≤ 0.2
19,WMMS,≤ 0.2
20,AVGK,≤ 0.2
21,NMWL,≤ 0.2
22,SVFS,≤ 0.2
23,QIRI,≤ 0.2
24,DSLW,≤ 0.2

row,Variant,one-hybrid fitness for binding NBS DNA
1,AMMK,≤ 0.2
2,SLDS,≤ 0.2
3,FTSR,≤ 0.2
4,KCLY,≤ 0.2
5,CIAT,≤ 0.2
6,QCGP,≤ 0.2
7,STQY,≤ 0.2
8,NRSH,≤ 0.2
9,YIIY,≤ 0.2
10,VCRC,≤ 0.2
11,TYLV,≤ 0.2
12,WQRC,≤ 0.2
13,CTAC,≤ 0.2
14,MCLV,≤ 0.2
15,LNTF,≤ 0.2
16,LFKP,≤ 0.2
17,NQLG,≤ 0.2
18,TCVV,≤ 0.2
19,GHQG,≤ 0.2
20,KWKA,≤ 0.2
21,RADV,≤ 0.2
22,RSCR,0.38
23,CPTY,≤ 0.2
24,NFLN,≤ 0.2

row,Variant,one-hybrid fitness for binding NBS DNA
1,RHRK,≤ 0.2
2,LRGL,≤ 0.2
3,RTDH,≤ 0.2
4,SLGN,≤ 0.2
5,HCNE,≤ 0.2
6,HIEI,≤ 0.2
7,ILKC,≤ 0.2
8,PNTG,≤ 0.2
9,QAAI,≤ 0.2
10,LRIH,≤ 0.2
11,TTDT,≤ 0.2
12,PIRK,≤ 0.2
13,QLAC,≤ 0.2
14,KYQR,≤ 0.2
15,MPLA,≤ 0.2
16,PPQW,≤ 0.2
17,KGGS,≤ 0.2
18,LTLL,≤ 0.2
19,LEIT,≤ 0.2
20,DGET,≤ 0.2
21,LPKE,≤ 0.2
22,YTRD,≤ 0.2
23,HAMK,≤ 0.2
24,QRLA,0.547

row,Variant,one-hybrid fitness for binding NBS DNA
1,VHPT,≤ 0.2
2,LTLV,≤ 0.2
3,CTII,≤ 0.2
4,YNLG,≤ 0.2
5,SHYS,≤ 0.2
6,CAGT,≤ 0.2
7,CTGE,≤ 0.2
8,SRFC,≤ 0.2
9,QEKS,≤ 0.2
10,NTLG,≤ 0.2
11,KRFH,≤ 0.2
12,EFAR,≤ 0.2
13,TEVS,≤ 0.2
14,MNSW,≤ 0.2
15,CTTW,≤ 0.2
16,AQRV,≤ 0.2
17,QMIW,≤ 0.2
18,QRKF,0.405
19,MNPG,≤ 0.2
20,YRFC,≤ 0.2
21,NHTC,≤ 0.2
22,TMKG,≤ 0.2
23,VIQW,≤ 0.2
24,NGVV,≤ 0.2

row,Variant,one-hybrid fitness for binding NBS DNA
1,GKLV,≤ 0.2
2,RRCR,0.75
3,ECAS,≤ 0.2
4,EQLN,≤ 0.2
5,SAAM,≤ 0.2
6,CHNW,≤ 0.2
7,RVNE,≤ 0.2
8,LDYP,≤ 0.2
9,RFAV,≤ 0.2
10,SGIW,≤ 0.2
11,THGL,≤ 0.2
12,SMVL,≤ 0.2
13,FYPG,≤ 0.2
14,SMPK,≤ 0.2
15,ENNW,≤ 0.2
16,NEEY,≤ 0.2
17,WWLG,≤ 0.2
18,CINR,≤ 0.2
19,TPAY,≤ 0.2
20,QATR,0.507
21,PGTM,≤ 0.2
22,ICNC,≤ 0.2
23,DSPR,≤ 0.2
24,LPMR,≤ 0.2

row,Variant,one-hybrid fitness for binding NBS DNA
1,YWHR,≤ 0.2
2,WSRR,0.239
3,VWKT,≤ 0.2
4,GPIG,≤ 0.2
5,SLCM,≤ 0.2
6,YMKT,≤ 0.2
7,HAMT,≤ 0.2
8,REAL,≤ 0.2
9,NIDG,≤ 0.2
10,KGSS,≤ 0.2
11,QGKP,≤ 0.2
12,AAHW,≤ 0.2
13,YVHT,≤ 0.2
14,TLKL,≤ 0.2
15,PKGS,≤ 0.2
16,QTRK,0.546
17,NVMS,≤ 0.2
18,PWEL,≤ 0.2
